# Laboratory results published in the BET-seq Pho4 binding data (Le et al. 2018).
# The list shows a part of the results. Values were computed here from the reads of four pooled replicates and scatter widely.
# Molecular target: T1, Pho4 (S. cerevisiae) (UniProt P07270)
# T1 sequence: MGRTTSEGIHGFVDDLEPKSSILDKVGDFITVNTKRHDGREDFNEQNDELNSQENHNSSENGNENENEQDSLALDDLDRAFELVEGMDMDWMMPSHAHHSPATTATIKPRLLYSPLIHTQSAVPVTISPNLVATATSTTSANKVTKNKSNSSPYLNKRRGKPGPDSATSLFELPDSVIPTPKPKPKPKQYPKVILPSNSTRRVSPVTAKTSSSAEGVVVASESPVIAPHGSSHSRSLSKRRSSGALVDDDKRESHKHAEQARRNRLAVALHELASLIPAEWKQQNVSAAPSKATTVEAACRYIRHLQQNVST
# Assay: relative binding free energy (BET-seq); higher = weaker binding
# Details: reference: library average
row,Sequence,relative binding free energy [kcal/mol]
1,TTGCGCACGTGTCTTT,-0.04
2,AATGACACGTGTAGAG,0.25
3,AGGCTCACGTGGTATA,0.22
4,CTGAACACGTGGTTTG,-0.04
5,CATTGCACGTGCAGGG,-0.14
6,ACTGCCACGTGTGGGG,-0.17
7,GTCGGCACGTGTGTAA,-0.11
8,GGTTTCACGTGGGTCA,0.14
9,GTTTGCACGTGACTTT,0.12
10,ACGTGCACGTGAAGGT,0.05
11,AGGTGCACGTGTTTTC,-0.14
12,TGGATCACGTGCTGGG,0.17
13,TGTTTCACGTGAATCA,0.31
14,GGGATCACGTGTGCTG,0.28
15,TTGAGCACGTGATGAA,0.07
16,TTATCCACGTGGGGGC,-0.08
17,TTTGACACGTGAACTG,0.24
18,TATATCACGTGAATGT,0.23
19,ACAAGCACGTGGGCGG,-0.19
20,TATGACACGTGCGGGA,-0.03
21,ATGGGCACGTGAAAGA,0.27
22,CCGGTCACGTGGAGTT,0.08
23,AGGTGCACGTGTTCTT,-0.06
24,GAAGGCACGTGGGCGG,-0.19
25,TTCGTCACGTGAGTTA,0.24
26,ATGAACACGTGGTTTT,0.02

row,Sequence,relative binding free energy [kcal/mol]
1,GGTAACACGTGGAGGG,0.06
2,GGCGCCACGTGGGTGC,-0.18
3,GATGGCACGTGATGGC,0.13
4,GTGGGCACGTGGGCTG,-0.09
5,GAGGGCACGTGTTTAT,0.15
6,GTCGTCACGTGTGAGG,0.15
7,GGAGTCACGTGATGCT,0.29
8,TTTGGCACGTGTGGGG,0.02
9,CGTAACACGTGTGGCT,0.14
10,GTAGTCACGTGTCGTT,0.16
11,AGGAACACGTGTTAGG,0.15
12,TTAGCCACGTGGGGTA,-0.17
13,ATAGACACGTGGGGGC,-0.02
14,GTTGGCACGTGTGATC,0.21
15,GTAGGCACGTGGGATA,-0.32
16,TTCAGCACGTGAGTAG,0.25
17,ATATGCACGTGGACGG,-0.05
18,GACTGCACGTGTTGTT,0.17
19,TTCTACACGTGAGGTT,0.34
20,TTTACCACGTGCTGGG,-0.11
21,TAGTGCACGTGTTTGC,0.01
22,CGTGTCACGTGGTGTG,-0.11
23,TCATTCACGTGGGGAT,0.08
24,TGATGCACGTGGATCA,0.03
25,TGTGGCACGTGGTCAG,-0.16
26,ATCAGCACGTGGTGGA,-0.26

row,Sequence,relative binding free energy [kcal/mol]
1,TGAGTCACGTGTTGAC,0.1
2,CGCAGCACGTGGGGTG,-0.25
3,GGTGTCACGTGTGGGT,0.18
4,GATGTCACGTGGTTTT,0.2
5,TTGTACACGTGTACTT,0.11
6,TATGTCACGTGCTTCG,0
7,GTTATCACGTGTGCGA,0.26
8,CGGTTCACGTGAATTT,0.35
9,CATGGCACGTGTTTGG,-0.06
10,TAGTTCACGTGAGAGG,0.35
11,TTTGACACGTGAAGGG,0.19
12,GGGCGCACGTGCGGGG,-0.18
13,TGGGCCACGTGTAAAT,0.1
14,TTTTACACGTGTGAGC,0.13
15,ATTGGCACGTGGGAGA,-0.18
16,AATGGCACGTGTAATT,-0.1
17,ACAAACACGTGTTGGT,0.15
18,TAGTGCACGTGGTCCG,-0.03
19,GTATACACGTGTGGGG,0.12
20,TTGGTCACGTGCCGGG,-0.05
21,GGCGTCACGTGGTATT,0.1
22,TCGGTCACGTGAGGGA,0.28
23,CTTGTCACGTGAAGTT,0.17
24,TTTTTCACGTGCCGGG,0.26
25,TATGTCACGTGAGAGG,0.34
26,TGGGTCACGTGCGCTG,-0.11

row,Sequence,relative binding free energy [kcal/mol]
1,TTGGCCACGTGTGGCG,-0.07
2,AATGGCACGTGTAGGG,-0.09
3,GGGCTCACGTGTATTG,0.21
4,ATTTACACGTGGAGGG,0.12
5,GGTGACACGTGTTTAT,0.14
6,CGGCGCACGTGGAGGA,-0.08
7,TGGGGCACGTGGGGAT,-0.09
8,CGTGACACGTGGGTGA,-0.1
9,ATTCGCACGTGGTATT,-0.13
10,AGTAGCACGTGCTTTG,-0.17
11,TTTGACACGTGGGAGG,-0.04
12,AAAAGCACGTGAAGTT,0.34
13,CTGGTCACGTGTTTCG,0.17
14,TTCTTCACGTGGGCTT,0.18
15,ATAGTCACGTGAAGTA,0.33
16,AGGGGCACGTGTAGAC,-0.03
17,AGGGACACGTGCCGTT,0.01
18,GGTTGCACGTGGAAAG,0.17
19,TTTATCACGTGGGGCG,0
20,TTTCACACGTGGGTTA,-0.06
21,TTGTGCACGTGACTGT,0.1
22,GAGAGCACGTGGAGGT,-0.07
23,TATGGCACGTGATTGA,-0.02
24,TCGTTCACGTGGTAAA,0.24
25,AGGCGCACGTGGAAGT,0.08
26,GATTGCACGTGGTAAT,0.07

row,Sequence,relative binding free energy [kcal/mol]
1,ATTCGCACGTGGTTGT,-0.22
2,ACGGTCACGTGTCAGG,0.14
3,TTCGTCACGTGTCTGT,0
4,AGGGTCACGTGGGAGC,0.19
5,ACAGTCACGTGTTGAG,0.36
6,TCTTACACGTGTTCGT,0.21
7,GACGACACGTGTGGTA,0.19
8,GGATACACGTGAGAAG,0.46
9,TGTTACACGTGGTATT,0
10,ATGGTCACGTGGAGAC,0.24
11,TAGTGCACGTGCTATT,-0.2
12,GGTGGCACGTGTGCGG,-0.07
13,GCGCACACGTGTGTGG,0.03
14,AAATTCACGTGTTTTG,0.3
15,TGGGTCACGTGTCTAA,0.17
16,GAGCGCACGTGTTTGT,0.01
17,AAGATCACGTGATGAT,0.32
18,GTTGTCACGTGAAGCT,0.26
19,TATATCACGTGTTCGG,0.32
20,AGGGTCACGTGCGGAC,0.14
21,ATAAGCACGTGGGCTG,-0.39
22,ATTGGCACGTGTTGCG,-0.14
23,ATACTCACGTGGAGTT,0.3
24,CGTAGCACGTGGTGGT,-0.12
25,ATAATCACGTGTAAGT,0.14
26,GGTGTCACGTGGCAGT,0.04

row,Sequence,relative binding free energy [kcal/mol]
1,GTAGTCACGTGGCATA,0.06
2,CTTATCACGTGTGCGT,0.21
3,AGGGGCACGTGTCGTA,-0.13
4,CTGTACACGTGAGGTT,0.4
5,CTGGTCACGTGGAAAG,0.18
6,TTAGACACGTGGGCTG,-0.21
7,TCGGGCACGTGTGGAA,0
8,TTTTGCACGTGTCTGA,0.05
9,GTTCTCACGTGGGTCT,0.19
10,TTTATCACGTGGTAGA,0.16
11,TGCGTCACGTGTTGGC,0.06
12,TGCGACACGTGTTGTG,-0.01
13,TAATGCACGTGATTTG,0.16
14,ATTATCACGTGGGAAG,0.1
15,ATTGTCACGTGCATAT,-0.07
16,GTCAGCACGTGGATGT,-0.01
17,CTTGTCACGTGTAGCG,0.1
18,TGCGCCACGTGTATGG,0.03
19,GGGTACACGTGGTGAC,0.02
20,GATGGCACGTGGTCAG,-0.23
21,TATTTCACGTGGGTGT,0.18
22,GTGTGCACGTGCATTT,0.08
23,GTTGTCACGTGGTGTC,0.01
24,GTTGACACGTGTATGG,0.05
25,TATCTCACGTGGGGAT,0.16
26,ATGGGCACGTGGATTT,0.04

row,Sequence,relative binding free energy [kcal/mol]
1,ACATACACGTGTGGTG,-0.04
2,ATATTCACGTGGGTGG,0.14
3,GTGTTCACGTGCCGTG,0.09
4,TTTGCCACGTGTAAGG,0.07
5,TGTCACACGTGAGGGG,0.2
6,GTGGGCACGTGTATCT,-0.05
7,TTCATCACGTGCGGTG,0.14
8,AACTGCACGTGTATGT,0.01
9,AGTGACACGTGTTTCT,0
10,AGTAACACGTGCGGGT,-0.15
11,CTTAGCACGTGGTATA,-0.2
12,TGCAGCACGTGCTTGT,-0.09
13,GCGAGCACGTGTAGTG,-0.07
14,TAAGTCACGTGGTCTT,0.09
15,TAGGGCACGTGGGACG,-0.19
16,GGCTGCACGTGGGCTG,-0.12
17,GTTTTCACGTGTTCGG,0.29
18,TTGTACACGTGTTCAG,-0.08
19,GGGAACACGTGAAAGT,0.47
20,GTAAACACGTGTGTGA,0.13
21,GTATGCACGTGAGGTC,0.22
22,AGGTTCACGTGGTGTT,0.22
23,CAGTTCACGTGGGAAG,0.36
24,ATGTCCACGTGGGGTA,-0.14
25,GTTGTCACGTGTGGTG,0.14
26,GGCGGCACGTGAGGGA,0.12

row,Sequence,relative binding free energy [kcal/mol]
1,TCTAGCACGTGTTATT,-0.06
2,CATGTCACGTGTGTTT,-0.04
3,TATGGCACGTGGGTAT,-0.14
4,AGTTGCACGTGTTGGG,0.01
5,TGTTACACGTGTAGTC,0.12
6,AACGTCACGTGTTTGT,-0.04
7,GTGGCCACGTGTGTAG,-0.09
8,CGGCACACGTGTGTTG,-0.04
9,GTCATCACGTGGAATG,0.28
10,AAAGCCACGTGTTAGG,0.07
11,GGTTACACGTGGCGTG,0.04
12,GGGTTCACGTGGCGCT,0.21
13,TGAGACACGTGCGCTG,0.09
14,TCGTACACGTGTTGCT,0.04
15,TTGCTCACGTGGTATA,-0.01
16,TATATCACGTGTTTAC,0.12
17,GTTGACACGTGGGCTG,0.01
18,TTCGTCACGTGGATAT,0.19
19,TTGTTCACGTGTTCTA,0.24
20,TTGTCCACGTGGGCTA,0.1
21,CTCGTCACGTGTGAGT,0.1
22,TCGGACACGTGGTATG,0
23,TTGATCACGTGCGTGA,0.05
24,GTCTTCACGTGTGGGT,0.33
25,TTAGGCACGTGTATGA,-0.08
26,ATTTTCACGTGACGAG,0.35

row,Sequence,relative binding free energy [kcal/mol]
1,ATGCTCACGTGCTTGG,0.2
2,CGGGTCACGTGAAGTT,0.45
3,ATTATCACGTGATAGT,0.27
4,GAAGTCACGTGGAGTT,0.2
5,TGGTGCACGTGCGTGC,-0.1
6,CCTGGCACGTGCGGGT,-0.04
7,AATTTCACGTGCTGTG,0.12
8,ATCTGCACGTGGTTTT,0
9,ATCAGCACGTGGGATT,-0.12
10,GGGTTCACGTGTGTTG,0.3
11,TTGCGCACGTGTGGGC,-0.14
12,GTAAACACGTGTGTTA,-0.01
13,ATTGTCACGTGGGCTT,0.02
14,AGGATCACGTGGCGGA,0.25
15,TTTGTCACGTGACCGT,0.17
16,GTAGACACGTGCGGAG,0.01
17,CGGAGCACGTGTGTGA,-0.12
18,GATGACACGTGTGGTA,0.29
19,GGAGTCACGTGTGAGT,0.13
20,GTCAGCACGTGGCTTG,-0.04
21,TCTTTCACGTGATTGT,0.31
22,TGTTGCACGTGCAATT,-0.11
